Assay results as given in article PMC12820563.
This is one part of the list. The list includes weakly bound sequences.

target: T1, MBP-FoxP3dN (UniProt Q99JB6); experiment: PD-seq (MBP pull-down with sequencing); conditions: 20 mM Tris-HCl pH 7.5, 100 mM NaCl, 1.5 mM MgCl2, 0.4 uM protein, 0.1 uM dsDNA library, 30 min, room temperature, amylose pull-down; high values mean tight binding; double strand, one strand shown
T1 sequence: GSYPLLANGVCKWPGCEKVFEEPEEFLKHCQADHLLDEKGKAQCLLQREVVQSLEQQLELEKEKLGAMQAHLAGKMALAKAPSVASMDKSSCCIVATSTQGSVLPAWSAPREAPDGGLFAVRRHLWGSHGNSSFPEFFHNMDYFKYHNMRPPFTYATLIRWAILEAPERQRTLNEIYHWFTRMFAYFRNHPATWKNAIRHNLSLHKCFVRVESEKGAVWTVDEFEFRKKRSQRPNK

Row | Sequence | binding signal (RPM ratio (pull-down/input))
1 | GATGATTGTTCTCCCAGCTGATGAATTGCCAATCTCGAGTAAACAAATTTTCCTAATCTTTCTGTTCAAGCGCCATCTAC | 0.57
2 | GATGATTGTTCTCCCAGCTGATGAATTACGTCTCTCGAGTAAACAAATTTTCCTAATCTTTCTGTTCAAGCGCCATCTAC | 0.945
3 | GATGATTGTTCTCCCAGCTGATGAATTGTGCCTCTCGAGTAAACAAATTTTCCTAATCTTTCTGTTCAAGCGCCATCTAC | 6.79
4 | GATGATTGTTCTCCCAGCTGATGAATTCGAATTATCGAGTAAACAAATTTTCCTAATCTTTCTGTTCAAGCGCCATCTAC | 0.752
5 | GATGATTGTTCTCCCAGCTGATGAATTAGAGCCTTCGAGTAAACAAATTTTCCTAATCTTTCTGTTCAAGCGCCATCTAC | 1.74
6 | GATGATTGTTCTCCCAGCTGATGAATTAGTCGAATCGAGTAAACAAATTTTCCTAATCTTTCTGTTCAAGCGCCATCTAC | 0.354
7 | GATGATTGTTCTCCCAGCTGATGAATTTCATTAATCGAGTAAACAAATTTTCCTAATCTTTCTGTTCAAGCGCCATCTAC | 0.25
8 | GATGATTGTTCTCCCAGCTGATGAATTGCCTGACTCGAGTAAACAAATTTTCCTAATCTTTCTGTTCAAGCGCCATCTAC | 0.488
9 | GATGATTGTTCTCCCAGCTGATGAATTAACATGTTCGAGTAAACAAATTTTCCTAATCTTTCTGTTCAAGCGCCATCTAC | 0.574
10 | GATGATTGTTCTCCCAGCTGATGAATTTCTTAGATCGAGTAAACAAATTTTCCTAATCTTTCTGTTCAAGCGCCATCTAC | 0.188
11 | GATGATTGTTCTCCCAGCTGATGAATTTGCTTTATCGAGTAAACAAATTTTCCTAATCTTTCTGTTCAAGCGCCATCTAC | 3.94
12 | GATGATTGTTCTCCCAGCTGATGAATTTCGGGTTTCGAGTAAACAAATTTTCCTAATCTTTCTGTTCAAGCGCCATCTAC | 0.597
13 | GATGATTGTTCTCCCAGCTGATGAATTACTTCCGTCGAGTAAACAAATTTTCCTAATCTTTCTGTTCAAGCGCCATCTAC | 0.226
14 | GATGATTGTTCTCCCAGCTGATGAATTGATGCCCTCGAGTAAACAAATTTTCCTAATCTTTCTGTTCAAGCGCCATCTAC | 1.85
15 | GATGATTGTTCTCCCAGCTGATGAATTATTTTCGTCGAGTAAACAAATTTTCCTAATCTTTCTGTTCAAGCGCCATCTAC | 0.869
16 | GATGATTGTTCTCCCAGCTGATGAATTAATAGCATCGAGTAAACAAATTTTCCTAATCTTTCTGTTCAAGCGCCATCTAC | 1.2
17 | GATGATTGTTCTCCCAGCTGATGAATTCTTCATCTCGAGTAAACAAATTTTCCTAATCTTTCTGTTCAAGCGCCATCTAC | 0.286
18 | GATGATTGTTCTCCCAGCTGATGAATTGAAAGGTTCGAGTAAACAAATTTTCCTAATCTTTCTGTTCAAGCGCCATCTAC | 0.22
19 | GATGATTGTTCTCCCAGCTGATGAATTTAGCATTTCGAGTAAACAAATTTTCCTAATCTTTCTGTTCAAGCGCCATCTAC | 6.35
20 | GATGATTGTTCTCCCAGCTGATGAATTACGCTAATCGAGTAAACAAATTTTCCTAATCTTTCTGTTCAAGCGCCATCTAC | 0.434

Row | Sequence | binding signal (RPM ratio (pull-down/input))
21 | GATGATTGTTCTCCCAGCTGATGAATTCTAATGTTCGAGTAAACAAATTTTCCTAATCTTTCTGTTCAAGCGCCATCTAC | 1.19
22 | GATGATTGTTCTCCCAGCTGATGAATTCCGGTATTCGAGTAAACAAATTTTCCTAATCTTTCTGTTCAAGCGCCATCTAC | 0.909
23 | GATGATTGTTCTCCCAGCTGATGAATTTTTGGCCTCGAGTAAACAAATTTTCCTAATCTTTCTGTTCAAGCGCCATCTAC | 0.38
24 | GATGATTGTTCTCCCAGCTGATGAATTTAATCTGTCGAGTAAACAAATTTTCCTAATCTTTCTGTTCAAGCGCCATCTAC | 0.341
25 | GATGATTGTTCTCCCAGCTGATGAATTCAAATCGTCGAGTAAACAAATTTTCCTAATCTTTCTGTTCAAGCGCCATCTAC | 0.322
26 | GATGATTGTTCTCCCAGCTGATGAATTGTGATATTCGAGTAAACAAATTTTCCTAATCTTTCTGTTCAAGCGCCATCTAC | 3.33
27 | GATGATTGTTCTCCCAGCTGATGAATTGGCCGGATCGAGTAAACAAATTTTCCTAATCTTTCTGTTCAAGCGCCATCTAC | 0.187
28 | GATGATTGTTCTCCCAGCTGATGAATTAACTCGTTCGAGTAAACAAATTTTCCTAATCTTTCTGTTCAAGCGCCATCTAC | 0.315
29 | GATGATTGTTCTCCCAGCTGATGAATTGATCTGTTCGAGTAAACAAATTTTCCTAATCTTTCTGTTCAAGCGCCATCTAC | 0.343
30 | GATGATTGTTCTCCCAGCTGATGAATTACTTAAATCGAGTAAACAAATTTTCCTAATCTTTCTGTTCAAGCGCCATCTAC | 0.263
31 | GATGATTGTTCTCCCAGCTGATGAATTAGGAACTTCGAGTAAACAAATTTTCCTAATCTTTCTGTTCAAGCGCCATCTAC | 0.262
32 | GATGATTGTTCTCCCAGCTGATGAATTATCAAGGTCGAGTAAACAAATTTTCCTAATCTTTCTGTTCAAGCGCCATCTAC | 0.195
33 | GATGATTGTTCTCCCAGCTGATGAATTCCGCGCCTCGAGTAAACAAATTTTCCTAATCTTTCTGTTCAAGCGCCATCTAC | 1.68
34 | GATGATTGTTCTCCCAGCTGATGAATTGCTCATCTCGAGTAAACAAATTTTCCTAATCTTTCTGTTCAAGCGCCATCTAC | 0.647
35 | GATGATTGTTCTCCCAGCTGATGAATTTCAAAGATCGAGTAAACAAATTTTCCTAATCTTTCTGTTCAAGCGCCATCTAC | 0.164
36 | GATGATTGTTCTCCCAGCTGATGAATTAAATCAATCGAGTAAACAAATTTTCCTAATCTTTCTGTTCAAGCGCCATCTAC | 0.351
37 | GATGATTGTTCTCCCAGCTGATGAATTACCCGTATCGAGTAAACAAATTTTCCTAATCTTTCTGTTCAAGCGCCATCTAC | 0.4
38 | GATGATTGTTCTCCCAGCTGATGAATTGTTTGTCTCGAGTAAACAAATTTTCCTAATCTTTCTGTTCAAGCGCCATCTAC | 7.63
39 | GATGATTGTTCTCCCAGCTGATGAATTTGCTCCTTCGAGTAAACAAATTTTCCTAATCTTTCTGTTCAAGCGCCATCTAC | 0.486
40 | GATGATTGTTCTCCCAGCTGATGAATTTGTGGTCTCGAGTAAACAAATTTTCCTAATCTTTCTGTTCAAGCGCCATCTAC | 5.25
